Reference: the RNAGym collection of RNA variant scans (doi:10.1093/nar/gkz1192)
Read counts are not given, so values of variants with three or more changes are uncertain.

B1: CPEB3 Ribozyme (parent)
chain: UAACAGGGGGCCACAGCAGAAGCGUUCACGUCGCAGCCCCUGUCAGAUUCUGGUGAAUCUGCGAAUUCUGCUGUAUAUCUC

Variants of: B1
Experiment: self-cleavage, relative activity (ratio to wild type); higher = more cleavage; in vitro, sequencing
In short: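 Libraries of CPEB3 self-cleaving ribozyme mutants came from rounds of error-prone PCR and carried barcodes, which DNA sequencing matched to variants. In vitro transcription used T7 RNA polymerase at 37°C for 5 hours, with a further 15 min in DNase I before EDTA stopped the reaction; the ribozymes cleaved during both steps. The RNA was reverse transcribed with template switching and sequenced on Illumina. Relative activity is the cleaved/total read fraction of a variant divided by that of the unmutated ribozyme, averaged over three batches with at least 5 reads.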

Variant	self-cleavage
U31C A57G U60A U76C	0.25
U31C A64U U67G	0.12
U31C A65C U74C	0.17
U31C C32A A65G U74C	0.09
U31C C32G U60A	0.13
U31C C34G G42A A56U U69A	0.17
U31C C34U A57G U67C	0.05
U31C C38A U72C	0.4
U31C C38G C44A	0.19
U31C C38U A57U A64G	0.07
U31C C39A A57G U74C	0.33
U31C C39A U51C C71G U80C	0.08
U31C C39U A45G C62U U80C	0.09
U31C C40A A56U A64U U76C U80C	0.1
U31C C40A C59A G70A U76A	0.09
U31C C40A U41A A75U	0.38
U31C C40A U60A U67C	0.12
U31C C40G U49C A77U	0.19
U31C C40U A45U U48A U72C U78A	0.11
U31C C40U A47G A56G U60C A77G U80C	0.04
U31C C40U G53U A56U A75G	0.13
U31C C40U U43A A56G C68U	0.47
U31C C40U U43C G52A U54C U72C	0.4
U31C C44A A47U U58G U80C	0.13

Variant	self-cleavage
U31C C62A A75G U80C	0.17
U31C G33A A35G C40U A57G U80A	0.1
U31C G33A A45G U49C A57G	0.15
U31C G33A A47G	0.23
U31C G33A A56G	0.05
U31C G33A C37U	0.11
U31C G33A G36C A57G A64G C68U	0.07
U31C G33A U43A	0.59
U31C G33A U48C	0.11
U31C G33U U41C	0.5
U31C G36C G53A A65U U80C	0.18
U31C G36C U58A U80A	0.08
U31C G42C U49C G70A	0.04
U31C G52A A56G	0.6
U31C G52A U78C	0.94
U31C G53A A57G U60A U72A U76A A77G	0.22
U31C U41A A64G U80A	0.07
U31C U41A C62U U72C	0.12
U31C U41A C81U	0.26
U31C U41C A45C	0.19
U31C U41C A45U U74C	0.34
U31C U41C A64G C79U	0.61
U31C U41C G70C	0.16
U31C U41C U54C U69C U72C	0.09

Variant	self-cleavage
U31C U41C U54G U66C	0.13
U31C U41G A75U	0.39
U31C U41G U66C U76C	0.08
U31C U43A G46A	0.26
U31C U43A U49C A56C	0.19
U31C U43A U60A	0.28
U31C U43C U66G	0.09
U31C U43C U69C	0.32
U31C U43C U74C A75G	0.58
U31C U43C U80C	0.53
U31C U48A G73A	0.48
U31C U48A U54C U78C	0.12
U31C U48C G53A	0.81
U31C U48C U49C	0.39
U31C U48C U54A	0.47
U31C U49A A75G U80G	0.49
U31C U49A U54C U69C A77G	0.06
U31C U49C A57C	0.12
U31C U49C A57U U58C U67C	0.1
U31C U49C U54C	0.13
U31C U51A G61C	0.32
U31C U51A U54C U80A	1.08
U31C U51A U54G	0.48
U31C U51A U76C	1.09

Variant	self-cleavage
U31C U51C U54C A77U	0.77
U31C U54A A56G	0.5
U31C U54A A57U	0.42
U31C U54A U58A U80C	0.22
U31C U54C A65G A75U	0.27
U31C U54G A56U U74C	0.45
U31C U66C U72A	0.44
U31C U67A U72C U78C	0.23
U31C U69C U72C	0.22
U31C U72A C79A	0.99
U31C U72A U78C C81U	0.87
U31G A45G U51G A56U A75G U78C	0.03
U31G A45G U66C	0.18
U31G A45U U51C	0.11
U31G A47U G53A	0.24
U31G A64G U72A	0.01
U31G A65G U80A	0.21
U31G C38A A56G U80A	0.08
U31G C40U U41C U69C	0.19
U31G U41C G61A A77U	0.17
U31G U43C A57G	0.21
U31G U49A U54C U60C	0.14
C32A A45G U66C U78C	0.12
C32A A47U C50U U51G U67C U78C	0.02

Variant	self-cleavage
C32A A56G A64G U69C	0.37
C32A A64G U67C	0.1
C32A G52A A64G	0.17
C32A G55C U72A A77U	0.05
C32A U41A U43C U69A	0.23
C32A U41C A56U	0.09
C32A U41C C59U U76C	0.31
C32A U43A A45G A64G U69C U78C	0.15
C32A U43A U69A U74C A75G	0.11
C32A U43C A45U U54C U78C	0.32
C32A U54C U72C	0.07
C32A U60C U78C	0.1
C32A U69A U72C	0.07
C32G A56G A57G U76A	0.26
C32G A57U U72C	0.06
C32G C39U C40A U41G A47G	0.03
C32G G52A U72C A77U	0.16
C32G U43C U54G U78C	0.19
C32G U48C U54C G73A	0.21
C32U A35G A56U A57G	0.12
C32U A35U A45G G63A U67C U76C	0.17
C32U A35U A47G U66C U72A A77U	0.06
C32U A35U A47U	0.09
C32U A35U U72A	0.09

Variant	self-cleavage
C32U A45G U48C U67C C68A	0.06
C32U A45G U51C U66C U67A	0.13
C32U A45G U72A	0.09
C32U A47U U67A U72C	0.22
C32U A56G U80C	0.14
C32U A56U A75G	0.13
C32U A56U U78C	0.15
C32U A57G A77G	0.14
C32U A77G U80C	0.19
C32U C34U A35G U78C	0.15
C32U C37U A56G	0.14
C32U C40A A65G	0.17
C32U G33A A56G A57G	0.09
C32U G55A A56G	0.14
C32U U41A A56G	0.17
C32U U41A U58C	0.18
C32U U41C U72G	0.12
C32U U41C U78A	0.13
C32U U48A A64G	0.15
C32U U49C C62U G63C U72A U80A	0.05
C32U U51A U54C U67G U74C A75G	0.07
C32U U51G U76C	0.22
C32U U54A U72A	0.12
C32U U58A U80C	0.17

Variant	self-cleavage
C32U U69C G73A	0.22
G33A A35G G46U	0.17
G33A A35G U60C U80C	0.22
G33A A35U C40A A47G U74C	0.06
G33A A45G A64G	0.27
G33A A45G U54C	0.2
G33A A45U A65G	0.13
G33A A45U G63C	0.12
G33A A47G U69A U80C	0.12
G33A A47G U80C	0.29
G33A A56G U66C	0.15
G33A A56G U78C	0.1
G33A A56U U60C	0.05
G33A A56U U69A	0.09
G33A A57G A65G	0.1
G33A A64G A65G A77G U78A	0.1
G33A A64G U74A	0.18
G33A C38U A56U A64G	0.16
G33A C39U A45U U54C U72C	0.2
G33A C62A U72A	0.07
G33A U41A U49C A65G	0.04
G33A U41A U72G U78C	0.13
G33A U41C A56U U58C U69C	0.13
